{"sequences": {"note": "Chains of the proteins cited; added tags and fusions are not shown.", "UniProt Q08562": "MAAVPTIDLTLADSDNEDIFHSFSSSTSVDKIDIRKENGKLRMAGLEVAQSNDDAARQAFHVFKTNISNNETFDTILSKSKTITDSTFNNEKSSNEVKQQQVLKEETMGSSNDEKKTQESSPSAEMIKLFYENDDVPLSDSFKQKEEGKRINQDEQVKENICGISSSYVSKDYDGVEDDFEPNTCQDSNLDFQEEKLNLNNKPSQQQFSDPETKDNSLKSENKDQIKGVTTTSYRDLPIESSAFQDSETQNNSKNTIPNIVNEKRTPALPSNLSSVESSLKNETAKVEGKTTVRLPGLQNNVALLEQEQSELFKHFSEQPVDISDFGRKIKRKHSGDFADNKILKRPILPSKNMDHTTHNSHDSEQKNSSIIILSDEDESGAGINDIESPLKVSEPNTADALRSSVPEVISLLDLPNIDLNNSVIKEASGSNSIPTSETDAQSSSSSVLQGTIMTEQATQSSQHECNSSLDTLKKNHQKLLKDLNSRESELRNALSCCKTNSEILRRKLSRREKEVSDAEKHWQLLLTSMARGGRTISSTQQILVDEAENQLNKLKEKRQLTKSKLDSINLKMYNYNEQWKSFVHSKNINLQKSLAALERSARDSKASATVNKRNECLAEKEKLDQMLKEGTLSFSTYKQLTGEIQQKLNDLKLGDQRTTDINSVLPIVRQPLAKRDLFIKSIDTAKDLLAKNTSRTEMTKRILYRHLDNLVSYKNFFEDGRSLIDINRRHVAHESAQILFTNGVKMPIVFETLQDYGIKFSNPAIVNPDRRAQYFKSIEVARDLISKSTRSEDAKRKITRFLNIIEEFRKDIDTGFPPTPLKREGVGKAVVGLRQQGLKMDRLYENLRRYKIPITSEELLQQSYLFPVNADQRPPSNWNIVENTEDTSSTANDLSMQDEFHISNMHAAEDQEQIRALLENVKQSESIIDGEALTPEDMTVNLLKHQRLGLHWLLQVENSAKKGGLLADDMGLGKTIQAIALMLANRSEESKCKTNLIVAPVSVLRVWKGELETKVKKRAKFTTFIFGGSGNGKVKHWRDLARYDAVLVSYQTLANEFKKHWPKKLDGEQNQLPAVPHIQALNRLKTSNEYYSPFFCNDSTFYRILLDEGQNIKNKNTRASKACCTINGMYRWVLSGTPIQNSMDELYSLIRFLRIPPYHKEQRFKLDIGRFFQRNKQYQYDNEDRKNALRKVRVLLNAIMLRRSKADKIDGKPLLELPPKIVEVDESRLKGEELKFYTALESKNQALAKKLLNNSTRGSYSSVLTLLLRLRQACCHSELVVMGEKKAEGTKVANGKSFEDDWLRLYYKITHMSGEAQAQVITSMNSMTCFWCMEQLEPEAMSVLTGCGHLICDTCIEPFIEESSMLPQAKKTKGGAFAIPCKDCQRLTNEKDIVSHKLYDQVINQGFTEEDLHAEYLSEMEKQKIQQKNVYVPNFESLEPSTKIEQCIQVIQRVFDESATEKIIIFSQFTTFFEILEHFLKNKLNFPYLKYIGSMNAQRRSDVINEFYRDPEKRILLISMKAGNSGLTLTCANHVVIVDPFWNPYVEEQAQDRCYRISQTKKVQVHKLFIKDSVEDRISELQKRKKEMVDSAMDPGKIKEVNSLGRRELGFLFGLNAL"}, "source": "paper PMC3618364", "key": {"[1]": {"target": "T1, TAP-Slx5 (S. cerevisiae) (UniProt P32828)", "T1 sequence": "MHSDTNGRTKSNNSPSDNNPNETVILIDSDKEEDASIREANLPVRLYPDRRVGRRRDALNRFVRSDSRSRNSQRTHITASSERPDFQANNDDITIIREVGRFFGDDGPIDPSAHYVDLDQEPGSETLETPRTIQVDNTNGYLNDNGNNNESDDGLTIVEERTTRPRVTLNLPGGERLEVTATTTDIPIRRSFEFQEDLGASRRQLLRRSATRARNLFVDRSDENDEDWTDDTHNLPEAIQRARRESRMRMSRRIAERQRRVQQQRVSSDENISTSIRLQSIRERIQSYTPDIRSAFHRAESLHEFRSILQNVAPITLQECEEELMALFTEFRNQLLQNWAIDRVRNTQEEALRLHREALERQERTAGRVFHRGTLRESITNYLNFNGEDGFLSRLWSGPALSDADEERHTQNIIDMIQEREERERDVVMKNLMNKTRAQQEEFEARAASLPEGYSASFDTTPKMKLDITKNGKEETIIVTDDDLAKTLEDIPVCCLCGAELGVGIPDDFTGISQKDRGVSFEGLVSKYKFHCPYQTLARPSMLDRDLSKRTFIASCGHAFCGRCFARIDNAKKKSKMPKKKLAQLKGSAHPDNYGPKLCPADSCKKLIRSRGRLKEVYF", "experiment": "co-IP; extracts of strain ZY528 (genomic TAP-Slx5) with a plasmid for HA-Uls1; IgG beads (TAP-Slx5) or HA beads, 1.5 hr at 4°C, RNP buffer (20 mM HEPES pH 7.4, 100 mM NaCl, 0.1% NP-40); Western blot with anti-HA and anti-TAP"}, "[2]": {"target": "T2, Gal4BD-Slx5 (S. cerevisiae) (UniProt P32828)", "T2 sequence": "T1 sequence", "experiment": "two-hybrid; Gal4AD and Gal4BD fusions (pGADT7, pGBKT7) in reporter strain PJ69-4A; His (10 mM 3AT) and Ade reporter phenotypes on plates"}, "[3]": {"target": "Gal4BD-Smt3 (SUMO) (S. cerevisiae) [SUMO: Q12306]", "experiment": "two-hybrid; Gal4AD and Gal4BD fusions (pGADT7, pGBKT7) in reporter strain PJ69-4A; His (10 mM 3AT) and Ade reporter phenotypes on plates"}, "[4]": {"target": "T3, Gal4BD-Ubc9 (S. cerevisiae) (UniProt P50623)", "T3 sequence": "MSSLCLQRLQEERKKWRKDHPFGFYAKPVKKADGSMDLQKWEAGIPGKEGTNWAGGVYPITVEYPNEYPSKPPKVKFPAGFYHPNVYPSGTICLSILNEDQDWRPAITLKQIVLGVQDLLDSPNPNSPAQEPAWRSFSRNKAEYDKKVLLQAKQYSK", "experiment": "two-hybrid; Gal4AD and Gal4BD fusions (pGADT7, pGBKT7) in reporter strain PJ69-4A; His (10 mM 3AT) and Ade reporter phenotypes on plates"}}, "note": "No constants are given. Whether binding was seen depends on the method and setting. For some of these results: Binding seen in cells or lysates may run through a third protein. Some entries that bind do so weakly or less than the wild type.", "data": [{"substance": "HA-Uls1 (from UniProt Q08562 1-1619)", "values": [{"measurement": "binding", "setting": "[1]", "value": "binds"}]}, {"substance": "Gal4AD-Uls1 (1-1619) (from UniProt Q08562 1-1619)", "values": [{"measurement": "binding", "setting": "[2]", "value": "binds"}, {"measurement": "binding", "setting": "[3]", "value": "binds"}, {"measurement": "binding", "setting": "[4]", "value": "no binding"}]}]}
